Measured values taken from PubChem BioAssay AID588855 (National Center for Advancing Translational Sciences (NCATS), 2011).
The campaign covered roughly 410,000 compounds. About 5,000 (1.2%) were called active. This list was built around the results that the source calls inconclusive (neither active nor inactive); the mix of calls is not that of the screen. The call rests on the fitted dose curve; in most records, active means well fitted inhibition curve with a large enough effect; inconclusive means small, poorly fitted or top-dose-only effect; inactive means no such curve, though single readings can be large or run the other way. A potency beside an inconclusive call is a rough fit, not a confirmed value.
On the % scale 0 is the no-effect control and ±100 the full control effect; potency means the concentration at half of the fitted maximal effect; tags describe the fitted curve by direction and shape.

Experiment: qHTS for Inhibitors of TGF-b; further: nearly all actives have a fitted effect of over 65% in size
Details: HepG2 CAGA-GFP TGF-b/SMAD3 reporter, GFP fluorescence, 18 h, TGF-beta stimulated, 500 pg/mL final; series mostly up to 46.1 µM; activity, negative = inhibition: at the top concentration
Procedure, shortened: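 Inhibition of TGF-beta-driven CAGA-GFP reporter expression in HEPG2 cells is measured by cellular GFP fluorescence after 18 h stimulation with 500 pg/mL recombinant TGF-beta in 1% FBS medium at 37 degrees C.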
In the case of `CCC1=NN(C(=O)c2ccccc2Br)C(O)(c2ccc(Br)cc2)C1` (stereo not given), the “activity, negative = inhibition” value is reported as inactive: -8.51%.
For `Cc1ccc(-c2nnc(SCC(=O)NC3CCCC3)n2C)cc1`, the “activity, negative = inhibition” value was inactive: -14.5%.
With `C[C@H]1CN([C@@H](C)CO)C(=O)c2cc(Br)cnc2O[C@@H]1CN(C)C(=O)Nc1ccc(C(F)(F)F)cc1` the “activity, negative = inhibition” value was inactive: 11.8%.
With `CC1(c2ccccc2)CC(C)(C)N(C(=O)CSc2nnc(N)s2)c2ccccc21` (stereo not given) the Potency was inconclusive: 22.4 µM [inhibitor, single point].
For `CSCC(C)N1CCC(n2nccc2NC(=O)CCOc2ccccc2)CC1` (stereo not given), the “activity, negative = inhibition” value was inactive: -7.82%.
With `CCOC(=O)N1CCC(NC(=O)CCc2c(C)nc3c(c(C)nn3C(C)(C)C)c2C)CC1` the Potency was inconclusive: 14.1 µM [inhibitor, partial curve, poor fit].
In the case of `CC1=C(C(=O)OCC(C)C)C(c2ccc(OCc3ccccc3)cc2)N2C(=O)CCSC2=N1` (stereo not given), the Potency is reported as inconclusive: 15.8 µM [inhibitor, single point].
In the case of `COc1ccc(N2CC(C(=O)Nc3nnc(SCC(=O)NCc4ccco4)s3)CC2=O)cc1` (stereo not given), the Potency is reported as inconclusive: 3.98 µM [inhibitor, single point].
In the case of `CC(C)(C)OC(=O)NCCCCCc1nnc(SCc2ccccc2)o1`, the “activity, negative = inhibition” value is reported as inactive: 11.3%.
In the case of `COc1cc(CN(C(=O)c2cccc(Cl)c2)c2ccccn2)cc(OC)c1OC`, the Potency is reported as inconclusive: 6.31 µM [inhibitor, single point].
For `Cc1ccc(-n2nc3c(c2NC(=O)CCC2CCCCC2)CS(=O)C3)cc1` (stereo not given), the Potency was inconclusive: 11.2 µM [inhibitor, partial curve].
With `O=C/C(=C\Nc1ccccn1)c1nc2ccccc2o1` the “activity, negative = inhibition” value was inactive: -22.8%.
In the case of `Cc1ccc(N(C(=O)CCC(=O)Nc2cc(C)on2)C(C(=O)NC2CCCC2)c2ccccc2)cc1` (stereo not given), the “activity, negative = inhibition” value is reported as inactive: 2.57%.
For `N[C@@H](Cc1ccc(O)cc1)c1nnc([C@H](CCC(=O)O)NC(=O)C2CCNCC2)o1`, the Potency was inconclusive: 0.398 µM [inhibitor, full curve, poor fit].
For `COc1ccc(NC(=O)CCn2nc(-c3ccccc3OC)c3c(C)cc(C)nc32)cc1`, the Potency was inconclusive: 22.4 µM [inhibitor, partial curve, poor fit].
For `Cc1ccc(Cc2c(-c3ccc(C)cc3)nc3c(Cl)cc(C(F)(F)F)cn23)cc1`, the Potency was inconclusive: 15.8 µM [inhibitor, single point].
With `CCOC(=O)c1cc(C)n(CC2CCC(C(=O)Nc3ccc(OCC)cc3)CC2)c1C` (stereo not given) the Potency was inconclusive: 6.31 µM [inhibitor, full curve].
In the case of `Cc1ccccc1OCC(O)Cn1c(NCc2ccco2)nc2c1c(=O)[nH]c(=O)n2C` (stereo not given), the Potency is reported as inconclusive: 35.5 µM [inhibitor, single point].
In the case of `COc1ccc(C2C(=O)N(C3CCCCC3)CC(=O)N2CCc2ccc(OC)c(OC)c2)cc1` (stereo not given), the “activity, negative = inhibition” value is reported as inactive: 0%.
With `COCOc1cccc(CN2CCC(C)(Oc3cccc(OC)c3)C2)c1` (stereo not given) the “activity, negative = inhibition” value was inactive: -8.29%.
In the case of `O=C1/C(=C\c2ccc(Br)o2)SC(=Nc2ccccc2)N1c1ccccc1`, the “activity, negative = inhibition” value is reported as inactive: -18.9%.
For `CCc1nn(C(C)C(=O)N2CCN(Cc3ccccc3)CC2)c(=O)c2cc3occc3n12` (stereo not given), the “activity, negative = inhibition” value was inactive: 7.42%.
For `O=C(Nc1ccccc1)C1C2CCC3C(CCC21)C3(Cl)Cl` (stereo not given), the “activity, negative = inhibition” value was inactive: -7.22%.
With `N=c1c(C(=O)NCc2ccco2)cc2c(=O)n3ccccc3nc2n1CCc1ccccc1` the Potency was inconclusive: 3.16 µM [inhibitor, full curve, poor fit].
With `Cc1ccc(C)n1-c1c(C(=O)NCCCN2CCN(c3ccc(F)cc3)CC2)sc2ncccc12` the Potency was inconclusive: 11.2 µM [inhibitor, partial curve, poor fit].
In the case of `N#Cc1ccc(-c2ccccc2)nc1Sc1ccc(F)cc1`, the Potency is reported as inconclusive: 35.5 µM [inhibitor, partial curve, poor fit].
With `COc1ccccc1OCc1nc(C#N)c(N2CCCC2)o1` the “activity, negative = inhibition” value was inactive: 14.9%.
With `O=C(NCC(c1ccco1)N1CCc2ccccc2C1)c1ccc([N+](=O)[O-])cc1` (stereo not given) the Potency was inconclusive: 22.4 µM [inhibitor, partial curve].
With `O=C(Nc1ccc2ccccc2c1)c1ccc(NS(=O)(=O)c2ccc(Br)s2)cc1` the Potency was inconclusive: 35.5 µM [inhibitor, single point].
With `COc1ccc(NC(=S)NC2CCCCC2)cn1` the Potency was inconclusive: 3.55 µM [inhibitor, partial curve, poor fit].
In the case of `CC1CN(C(=O)N2CCC(C(=O)NCCC3=CCCCC3)CC2)c2cc(Cl)ccc2O1` (stereo not given), the Potency is reported as inconclusive: 20 µM [inhibitor, single point].
For `COC(CNC(=O)CN1CCN(Cc2ccccc2F)C1=O)OC`, the “activity, negative = inhibition” value was inactive: -11.7%.
With `CC(C(=O)Nc1ccc(C(=O)O)cc1)N1C(=O)c2ccccc2C1=O` (stereo not given) the “activity, negative = inhibition” value was inactive: -24.3%.
With `CC(C)C[C@H](N)c1cn([C@@H](CCCCN)C(=O)N2CCNCC2)nn1` the Potency was inconclusive: 7.94 µM [inhibitor, partial curve, poor fit].
For `CSCCC(NS(=O)(=O)c1ccc(C)cc1)C(=O)N1CCN(C(c2ccccc2)c2ccccc2)CC1` (stereo not given), the Potency was inconclusive: 35.5 µM [inhibitor, single point].
